This passage reports binding signal results from paper PMC12136788.

The other results are listed elsewhere or left out.

B1: chr1:109605286:109605287:-_ENSG00000197780_ENST00000461096|hu_mus|hu_hu_hu_mus_True|8_28 (ssRNA)
RNA: GGGAGUUCUACAGUCCGACGAUCAAGUUUCAGAGUAACAUUCAGUAACCUCUUUAAAUGCAAUUAUCCUUAUUAUAAGCUAAGCAGAAUAAUAAUUUAAUACCGUAAGUAAAUACAACACAAAGCCGUGUAUUCAGAAAUGGUCAACAGAGGAUUGAGCAUCA
B2: chr9:95013113:95013114:-_ENSG00000196305_ENST00000443024|hu_hu|hu_hu_hu_mus_False|48_68 (ssRNA)
RNA: GGGAGUUCUACAGUCCGACGAUCCUCAGUCAGAAAGGGCGUGUAAGGGGCCAUCAGUCUGCACAGAGAAAGCAGAACACUGAACAGGGUUUCUAGGGCCAUGACACAGUCUUCCACCCCACUCUCACCCUUUAACCUCCUCCUCAACAGAGGAUUGAGCAUCA
B3: chr4:115894766:115894767:+_ENSMUSG00000028698_ENSMUST00000030464|mus_hu|mus_mus_mus_hu_True|48_58 (ssRNA)
RNA: GGGAGUUCUACAGUCCGACGAUCUUCCACACGGAAAUGUACUUCGGGUUUUCCAACGGCCAGUACCAGUCCGGCCAACUACUAGGAUGAGGACAAGCCCCCUCUCUCCUACAGAACACAACAAAAUGCCCCCGAACUUUCAAGCAACAGAGGAUUGAGCAUCA
B4: chr14:102359341:102359342:+_ENSG00000078304_ENST00000445439|hu_hu|FALSE|FALSE (ssRNA)
RNA: GGGAGUUCUACAGUCCGACGAUCUUUUAGUGGUAAGGCAAAUCCAUUAAUUAUACUUCCCAAUAUUUCCAGUAACUCUGCUAUGCCAUUAUGAUGCUCUGUUUCAUAAAUAAACCUAUAAAAUAUAUUAUUUAUCUGUUUUCUCAACAGAGGAUUGAGCAUCA
B5: chr16:94690093:94690094:+_ENSMUSG00000040785_ENSMUST00000117648|mus_hu|mus_mus_mus_hu_True|1_98 (ssRNA)
RNA: GGGAGUUCUACAGUCCGACGAUCGGGCUGGGAUGACAGCAGACAGCCCUCGAUUCCAGGGGGAAAAAGUCUUAGUCGAUACUAAUUAAAAAGUGUUAAUGAUUUUUGAAAAUCAGAUUACAUCUAUAAAAGAUGAAAGCACUUCAACAGAGGAUUGAGCAUCA
B6: chr19:16212804:16212805:+_ENSG00000167460_ENST00000300933|hu_mus|hu_hu_hu_mus_False|28_38 (ssRNA)
RNA: GGGAGUUCUACAGUCCGACGAUCAACAAUUCUGGAGUGAAGGAAAGAUGUAACAUGGAACAGCAUUAAAGCUCAGUCAGAAGGCACAUGGGCAACAAUGACUAUUUCCCAAGCAUUGCUUGGAAUGCUUAAAGACAAUCUGUUCAACAGAGGAUUGAGCAUCA
B7: chr17:65740002:65740003:+_ENSG00000130935_ENST00000581375|hu_hu|hu_hu_hu_mus_False|88_98 (ssRNA)
RNA: GGGAGUUCUACAGUCCGACGAUCAACAAAUCUUUCUCUGGAUGAAGCAAGAGUUCAUUCAUAUUAAAAAAAAUAUAUAUCCAUCAAGUUAGGUGUGGUGGCCACACCUUUACUCCCAGCACUUUGGGAGGUGGAUCUCUGAGUCAACAGAGGAUUGAGCAUCA
B8: 127979771_127981217_349_CDS_ENSG00000106344_ENST00000459726|human|control|control (ssRNA)
RNA: GGGAGUUCUACAGUCCGACGAUCCUCCUUGAGGGCCCUCUGAACAUCUUCCAGCAUUGAAAAAGUGACAUAGCCAAAGCCUCGACAUGCCUUACUCCCUGAAAAGGACACAUAGUUCAUAUGCUCUGCUUCUCUUUCCACUGCCAACAGAGGAUUGAGCAUCA
B9: chr5:128440902:128440903:+_ENSG00000066583_ENST00000173527|hu_mus|hu_hu_hu_mus_True|1_68 (ssRNA)
RNA: GGGAGUUCUACAGUCCGACGAUCUUGAACGGUGCUGCCAAGUCCUUUGGGGUAUUGUUCCGUUAUGAUAACAGGAAUCCCUAAGAUCCGAGCUCCUUGCAACAGUCUCUGUCCCACACUAAUGAUGUCCCCAAAGUACUUGAUCAACAGAGGAUUGAGCAUCA
B10: 81058291_81058880_2252_CDS_ENSG00000108175_ENST00000334512|human|control|control (ssRNA)
RNA: GGGAGUUCUACAGUCCGACGAUCCUCCAGGCGGAAGGGCUCCAGCACCACGCCAUCCCGCACAGGGAAUGUGAGCCGCAGCUCGUCAUUGUGGUUGGCUGGGGGUGGUGGCAGAGCGCUCAUAUUUGGCUUGAUGUCAGGCGGCAACAGAGGAUUGAGCAUCA
B11: chr12:42180722:42180723:-_ENSMUSG00000036295_ENSMUST00000043884|mus_hu|mus_mus_mus_hu_True|18_68 (ssRNA)
RNA: GGGAGUUCUACAGUCCGACGAUCCUGUAGGAGAAGAAUCUGUGUGUUAGCUGGCAAUCUGGCUGGGAAGUUUAAAAGACCUAAAUCAUUACAAUCCACUGUAGAUGCUUCCAUAUAGAUGGAUCUCGGUGUAAACCAAGGCCUCAACAGAGGAUUGAGCAUCA
B12: chr7:150253219:150253220:+_ENSMUSG00000037706_ENSMUST00000037941|mus_mus|motif|central (ssRNA)
RNA: GGGAGUUCUACAGUCCGACGAUCCCGGAUGCCACAGCACAGCACCAUGCUCAGAAUCAUCUCAAAGAUCAUAAUGACAGCGGCCACAAUGGCUGCAAUUCCAAUGAGGUACAGCUUCCCAGAGAAGAGCUCAUCGAUUUUCUGCAACAGAGGAUUGAGCAUCA
B13: 2814021_2814141_4101_CDS_ENSG00000167978_ENST00000301740|human|control|control (ssRNA)
RNA: GGGAGUUCUACAGUCCGACGAUCGUCUUUGAAUACCAGUGAAGACUCAGGCCUAUCCUGUACUGGAAAGGGACUAAAUUUGUCUUUCUGUCUAGGAGGUGAUGCAGUAGCAUCCUCCUGAGGGGGUAAGGCCAUUUUCUCUUUCAACAGAGGAUUGAGCAUCA
B14: chr14:66974463:66974464:+_ENSMUSG00000022044_ENSMUST00000074523|mus_hu|mus_mus_mus_hu_False|28_28 (ssRNA)
RNA: GGGAGUUCUACAGUCCGACGAUCUUGUAGGACGACUUAUUCAGGGGAUCGGCCAGGAAGCAGGAGCAGAACAAGGACACCAGCGGGAGCUCCUUCAUCUUCUCUUUAUAGGCUGCAAGGGUCAUGUUUCUGGGAUCUGGUGGCCAACAGAGGAUUGAGCAUCA

The assay addresses T1, UNK ZnF1-3 (human, UniProt Q9C0B0 31-174).
T1 sequence: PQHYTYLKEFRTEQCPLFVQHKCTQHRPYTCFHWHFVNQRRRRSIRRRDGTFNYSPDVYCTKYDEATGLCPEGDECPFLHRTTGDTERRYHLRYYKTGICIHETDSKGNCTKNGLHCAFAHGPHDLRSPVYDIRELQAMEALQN
Description: nsRBNS (natural sequence RNA bind-n-seq); RBNS binding buffer (assumed for nsRBNS): 25 mM Tris pH 7.5, 150 mM KCl, 3 mM MgCl2, 0.01% Triton X-100, 500 ug/ml BSA, 20 U/ml SUPERase-In, 4 C; UNK is unkempt and MSI1 is Musashi-1; names of the RNAs are library labels; protein concentration not given here; high values mean tight binding.
The molecule B1 gave a binding signal of 0.927 enrichment R.

Regarding B2, the binding signal is 1.07 enrichment R.

In turn, B3 yielded a binding signal of 0.976 enrichment R.

As to B4, the binding signal came out at 1.27 enrichment R.

In the case of B5, the binding signal was determined as 0.906 enrichment R.

Consider B6, for which the binding signal was determined as 1.12 enrichment R.

On to B7, for which the binding signal is 0.695 enrichment R.

Consider B8, for which the binding signal turned out to be 1.21 enrichment R.

Molecule B9 registered a binding signal of 0.638 enrichment R.

B10 showed a binding signal of 0.834 enrichment R.

As for B11, the binding signal came to 0.955 enrichment R.

Molecule B12 gave a binding signal of 1.29 enrichment R.

B13 showed a binding signal of 0.562 enrichment R.

On to B14, for which the binding signal was found to be 2.44 enrichment R.
